We go through 62 compounds from the supplement of paper PMC9446081.

Each structure is given as a SMILES string. The campaign covered roughly 39,000 compounds. About 220 (0.56%) showed activity. Some of the results follow.
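Also: static incubation at 37 °C against the wild-type strain, values averaged over two biological replicates.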

This experiment deals with Escherichia coli K-12 BW25113. The experiment is described as follows: relative growth (OD600 normalised to plate interquartile mean) (fraction); higher = less growth inhibition, active = 0.2 or less. The note with it: 50 µM; LB; incubation time: overnight (16-24 h).
Consider `CC(C)(C)OC(=O)N[C@H]1CCCCC/C=C\[C@@H]2C[C@@]2(C(=O)NS(=O)(=O)C2CC2)NC(=O)[C@@H]2C[C@@H](OC(=O)N3Cc4cccc(F)c4C3)CN2C1=O`, for which the relative growth is inactive: 0.925. Turning to `C[C@H]1CN([C@@H](C)CO)C(=O)c2cccc(NS(=O)(=O)c3ccc(Cl)cc3)c2O[C@@H]1CN(C)Cc1ccc(C(F)(F)F)cc1`, the relative growth is inactive: 1.02. Regarding `C=C(C)C1CCC2(C)CCC3(C)C(CCC4C5(C)CCC(OC(C)=O)C(C)(C)C5CCC43C)C12` (configuration not stated), the relative growth is inactive: 0.829. Consider `NC(=O)Cn1cnc2sc3c(c2c1=O)CCC3`, for which the relative growth is inactive: 1.02.

Regarding `C[C@H]1CN([C@@H](C)CO)C(=O)Cc2cc(NC(=O)Nc3ccc(F)cc3)ccc2O[C@@H]1CN(C)S(C)(=O)=O`, the relative growth was inactive: 0.982. For `O=C(NCCN1CCOCC1)[C@@]1(CCS(=O)(=O)c2ccccc2)COC(c2ccc(OCCCO)cc2)=N1`, the relative growth is inactive: 0.988. Take `CN1C(=O)COc2cc(N)ccc21`: the relative growth is inactive: 1.03. With `COCCCNC(=O)[C@@]1(Cc2ccccc2I)c2ccccc2C(=O)N(Cc2ccccc2OC)[C@H]1c1ccc(CO)cc1`, the relative growth is inactive: 1.03. Then `COc1ccc(Cl)cc1C(=O)NCCc1ccc(S(=O)(=O)NC(=O)NC2CCCCC2)cc1`, with inactive: 0.894; and `O=c1[nH]ccn(-c2ccccc2)c1=O`, with inactive: 1.02.

With `C[C@H]1CCCCO[C@@H](CN(C)C(=O)Cc2ccccc2)[C@@H](C)CN([C@@H](C)CO)C(=O)c2cc(NS(=O)(=O)c3ccc(Cl)cc3)ccc2O1`, the relative growth is inactive: 1.03. Then `C[C@H]1CN([C@@H](C)CO)C(=O)c2c(c3ccccc3n2C)-c2ccccc2CO[C@@H]1CN(C)C(=O)Nc1cccc(Cl)c1Cl`, with inactive: 1.02; and `Clc1ccc(C(Cn2ccnc2)OCc2c(Cl)cccc2Cl)c(Cl)c1.O=[N+]([O-])O` (configuration not stated), with inactive: 0.739. `C[C@H](CO)N1C[C@H](C)[C@H](CN(C)Cc2ccc(Cl)c(Cl)c2)OCCCC[C@H](C)Oc2ccc(NC(=O)Nc3ccc(F)cc3)cc2C1=O`: the relative growth is inactive: 0.977.

Regarding `C[C@H]1CN([C@@H](C)CO)S(=O)(=O)c2ccc(-c3cccnc3)cc2O[C@H]1CN(C)C(=O)c1cccc(F)c1`, the relative growth was inactive: 1.01. For the compound `Cc1noc(C)c1NC(=O)Nc1ccc2c(c1)C(=O)N([C@H](C)CO)C[C@@H](C)[C@@H](CN(C)Cc1ccccc1)OCCCC[C@@H](C)O2`, the relative growth is inactive: 1.01. For `O=C(C[C@@H]1CC[C@H]2[C@@H](COC[C@@H](O)CN2C(=O)Nc2cccc(F)c2)O1)NCCCN1CCOCC1`, the relative growth was inactive: 0.951. Then `C[C@@H]1CCCCO[C@H](CN(C)Cc2ccc(C(F)(F)F)cc2)[C@H](C)CN([C@@H](C)CO)C(=O)c2cc(NS(=O)(=O)c3cccs3)ccc2O1`, with inactive: 0.999. `CC(C)=CCC1=C(O)C(=O)c2ccccc2C1=O`: the relative growth is inactive: 0.796.

On to `C[C@@H]1CN([C@H](C)CO)C(=O)c2ccccc2-c2ccccc2CO[C@@H]1CN(C)C(=O)Nc1ccccc1C(F)(F)F`, for which the relative growth was inactive: 0.991. Regarding `COCC(=O)N1C[C@H](C)[C@H](OC)CN(C)C(=O)c2cc(NC(=O)Nc3cccc(F)c3)ccc2OC[C@H]1C`, the relative growth is inactive: 0.989. Take `C[C@@H]1CN([C@H](C)CO)C(=O)Cc2cc(NS(=O)(=O)c3cn(C)cn3)ccc2O[C@H]1CN(C)Cc1ccc(C(=O)O)cc1`: the relative growth is inactive: 0.973. `O=C(C[C@H]1CC[C@@H]2[C@H](COC[C@H](O)CN2S(=O)(=O)c2ccc(Cl)cc2)O1)NCC1CCCCC1`: the relative growth was inactive: 0.696. Then `O=C(C[C@H]1CC[C@H](NC(=O)CN2CCOCC2)[C@H](CO)O1)NCCc1ccncc1`, with inactive: 0.994; and `CC(C)NC(=O)N(C)C[C@H]1OCCCC[C@H](C)Oc2ccc(NC(=O)Nc3ccc(F)cc3)cc2C(=O)N([C@@H](C)CO)C[C@H]1C`, with inactive: 0.985; and `Cc1noc(C)c1NC(=O)N(C)C[C@H]1OCCCC[C@@H](C)Oc2ccc(NC(=O)C3CCCCC3)cc2C(=O)N([C@H](C)CO)C[C@H]1C`, with inactive: 1. With `CCOC(=O)[C@H]1CC(CC2OCCO2)=NO1`, the relative growth is inactive: 1.01. Regarding `C[C@H]1CN([C@@H](C)CO)S(=O)(=O)c2ccc(C#CC3(O)CCCC3)cc2O[C@@H]1CN(C)C(=O)Nc1cccc(F)c1`, the relative growth is inactive: 1.02. With `C[C@H](CO)N1C[C@H](C)[C@@H](CN(C)Cc2ccc(C(=O)O)cc2)Oc2ccc(NC(=O)CCCN(C)C)cc2C1=O`, the relative growth is inactive: 0.969. As to `CO[C@@H]1CN(C)C(=O)c2ccc(NC(=O)c3cc(C)on3)cc2OC[C@@H](C)N(S(=O)(=O)c2ccccc2)C[C@H]1C`, the relative growth was inactive: 1. For `C[C@@H]1CN([C@H](C)CO)C(=O)c2cc(NS(C)(=O)=O)ccc2O[C@@H]1CN(C)Cc1ccc(C(=O)O)cc1`, the relative growth is inactive: 0.996.

Turning to `COc1ccc(NC(=O)Nc2ccc3c(c2)C(=O)N([C@@H](C)CO)C[C@@H](C)[C@H](CN(C)C(=O)NC(C)C)OCCCC[C@@H](C)O3)cc1`, the relative growth was inactive: 0.996.

`C/C(=N\N)c1c(C)cc(C)[nH]c1=O`: the relative growth is inactive: 1.02. With `Cc1ccc(S(=O)(=O)N(C)C[C@H]2OCCCC[C@@H](C)Oc3ccc(NC(=O)Nc4cccc5ccccc45)cc3C(=O)N([C@@H](C)CO)C[C@H]2C)cc1`, the relative growth is inactive: 1.03. In the case of `Cc1noc(C)c1S(=O)(=O)Nc1ccc2c(c1)CC(=O)N([C@H](C)CO)C[C@H](C)[C@H](CN(C)Cc1ccc(C(=O)O)cc1)O2`, the relative growth is inactive: 1. For `COc1ccc(S(=O)(=O)Nc2ccc3c(c2)CC(=O)N([C@H](C)CO)C[C@@H](C)[C@H](CN(C)C)O3)cc1` the value was inactive: 0.994; for `C[C@@H]1CN([C@@H](C)CO)C(=O)c2cc(NC(=O)CCC(F)(F)F)ccc2O[C@@H]1CN(C)Cc1ccc(Cl)c(Cl)c1`, inactive: 0.985. Regarding `COc1ccc(NC(=O)Nc2ccc3c(c2)C(=O)N([C@@H](C)CO)C[C@@H](C)[C@@H](CN(C)C(=O)NC2CCCCC2)OCCCC[C@@H](C)O3)cc1`, the relative growth is inactive: 0.994.

Consider `CC(=O)OCC(=O)C1CCC2C3CCC4=CC(=O)CCC4(C)C3CCC12C` (configuration not stated), for which the relative growth is inactive: 1.01.

As to `C[C@H](CO)N1C[C@H](C)[C@@H](CN(C)C(=O)Nc2ccc(F)cc2)Oc2ccc(NS(C)(=O)=O)cc2C1=O`, the relative growth is inactive: 0.981. For the compound `C[C@H](CO)N1C[C@H](C)[C@H](CN(C)S(=O)(=O)c2cccs2)OCCCC[C@H](C)Oc2ccc(NC(=O)Cc3ccccc3)cc2C1=O`, the relative growth is inactive: 1. For `Cc1nc2ccc([N+](=O)[O-])cc2s1` the value was inactive: 0.992; for `O=C(C[C@H]1CC[C@H]2[C@@H](COC[C@H](O)CN2S(=O)(=O)c2cccc(Cl)c2)O1)NCc1ccncn1`, inactive: 1. As to `C[C@H]1CC=CC[C@H](c2ccc3c(c2)OCO3)NC(=O)[C@@H](Cc2ccccc2)N(C)C(=O)c2ccccc2O1`, the relative growth is inactive: 1. For `CC(C)(C)OC(=O)C[C@H]1CC=CC[C@H](CC(=O)N(CCO)Cc2ccccc2)C(=O)N2CCC[C@@H]2COC1=O`, the relative growth was inactive: 1.04. Take `COCC#Cc1ccc2c(c1)O[C@H](CN(C)Cc1ccc(F)cc1)[C@H](C)CN([C@H](C)CO)S2(=O)=O`: the relative growth was inactive: 1.03. With `O=C(CCCCCCC(=O)Nc1ccccc1O)N/N=C/[C@H](O)[C@@H](O)[C@H](O[C@@H]1O[C@H](CO)[C@H](O)[C@H](O)[C@H]1O)[C@H](O)CO`, the relative growth is inactive: 0.987. As for `O=C(O)C1CC(C2CCCCN2)CN2CCCCC12` (configuration not stated), the relative growth was inactive: 0.976. Then `CCCCCCNC(=O)n1cc(F)c(=O)[nH]c1=O`, with inactive: 0.463; and `CCCC(=O)Nc1ccc2c(c1)C(=O)N(C)C[C@@H](OC)[C@H](C)CN(C(=O)Cc1ccccn1)[C@H](C)CO2`, with inactive: 0.987. On to `C[C@H]1CN([C@@H](C)CO)C(=O)c2cc(C#CC3CCCC3)cnc2O[C@H]1CN(C)C(=O)Cc1ccccn1`, for which the relative growth was inactive: 1.02. Take `[O-]/[N+](=N\O[C@H]1O[C@H](CO)[C@@H](O)[C@H](O)[C@@H]1O)N1CCCC1`: the relative growth was inactive: 0.968. Then `C[C@@H]1CN([C@H](C)CO)C(=O)c2cc(NS(=O)(=O)c3cccs3)ccc2O[C@H]1CN(C)Cc1ccncc1`, with inactive: 0.998; and `Cc1ccc(S(=O)(=O)Nc2ccc3c(c2)CC(=O)N([C@H](C)CO)C[C@H](C)[C@@H](CN(C)S(=O)(=O)c2ccc(F)cc2)O3)cc1`, with inactive: 1.01; and `C[C@@H]1CCCCO[C@@H](CN(C)S(C)(=O)=O)[C@H](C)CN([C@H](C)CO)C(=O)c2cc(NC(=O)Nc3ccc(C(F)(F)F)cc3)ccc2O1`, with inactive: 0.985.

Turning to `C[C@H]1CN([C@@H](C)CO)C(=O)Cc2cc(NS(=O)(=O)c3ccc(Cl)cc3)ccc2O[C@H]1CN(C)Cc1ccc(C(=O)Nc2ccccc2N)cc1`, the relative growth is inactive: 0.974. For `C[C@H](CO)N1C[C@H](C)[C@H](CN(C)C(=O)Nc2cccc3ccccc23)Oc2ncc(/C=C/c3ccccc3)cc2C1=O`, the relative growth was inactive: 1.01.

Turning to `COc1ccc(OC)c(CCNC(=O)CN)c1`, the relative growth is inactive: 1.04. In the case of `C[C@@H]1CN([C@@H](C)CO)C(=O)Cc2cc(NS(C)(=O)=O)ccc2O[C@H]1CN(C)S(C)(=O)=O`, the relative growth was inactive: 0.973. With `C[C@H](CO)N1C[C@H](C)[C@@H](CN(C)Cc2ccc(C(F)(F)F)cc2)OCCCC[C@H](C)Oc2ccc(NC(=O)C3CCCCC3)cc2C1=O`, the relative growth is inactive: 0.944. For the compound `COc1ccc(NC(=O)Nc2ccc3c(c2)C(=O)N([C@H](C)CO)C[C@@H](C)[C@@H](CN(C)C(=O)Nc2ccc(C(F)(F)F)cc2)O3)cc1`, the relative growth is inactive: 0.948. For `CO[C@H]1C[C@@H](C[C@@H](C)[C@H]2CC(=O)[C@@H](C)/C=C(\C)[C@@H](O)[C@@H](OC)C(=O)[C@@H](C)C[C@@H](C)/C=C/C=C/C=C(\C)[C@H](OC)C[C@H]3CC[C@@H](C)[C@@](O)(O3)C(=O)C(=O)N3CCCC[C@@H]3C(=O)O2)CC[C@@H]1O` the value was inactive: 0.97.
